Laboratory results taken from PubChem BioAssay AID504832 (National Center for Advancing Translational Sciences (NCATS), 2011).
Hit rate of the full screen: of about 310,000 compounds, about 18,000 (5.8%) were called active. Inconclusive results, whose numbers are uncertain, are shown with a selection of clear calls. Calls come from the whole dose curve; as a rule, active = well fitted inhibition curve with a large enough effect; inconclusive = small, poorly fitted or top-dose-only effect, or another doubt; inactive = no such curve, though single readings can be large or run the other way. No potency is given beside an inconclusive call; the fits are too rough.

assay: Primary qHTS for delayed death inhibitors of the malarial parasite plastid, 48 hour incubation; details: P. falciparum luciferase growth in erythrocytes; series mostly up to 28.7 µM; activity change, negative = inhibition: at the top concentration
In short: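 Here the parasites carry a stable luciferase gene and grow inside erythrocytes in Albumax-based RPMI medium with compound for one erythrocytic cycle. Activity is scored as loss of luminescent signal.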
% is set by controls: 0 for no effect and ±100 for the full control effect; potency is the fitted concentration of half-maximal effect; tags give direction and shape of the fitted curve.

Question: Which “activity change, negative = inhibition” value does the source give for Cc1ccc2nsnc2c1NC(=O)COc1ccccc1F here?
Answer: Its value is inactive: -2.82%.

Question: With O=C(CCNS(=O)(=O)c1ccccc1)Nc1ccc(Cl)cc1C(=O)c1ccccc1 as the compound, how does the Potency read?
Answer: Its Potency is active: 11.7 µM.

Question: Which “activity change, negative = inhibition” value does the source give for CCOc1ccc(S(=O)(=O)Nc2cccc(C(=O)NCC3CCCO3)c2)cc1 (centres undefined) here?
Answer: The value was inactive: -5.96%.

Question: Which Potency does the source give for N#Cc1ccc(CN2CCN(C(=O)c3cc(Cl)c4c(c3)OCCO4)CC2)cc1 here?
Answer: Its Potency is inconclusive [inhibitor, partial curve, poor fit].

Question: With COc1ccccc1CCNC(=O)C(=O)NCC1OCCN1S(=O)(=O)c1ccc([N+](=O)[O-])cc1 (centres undefined) as the compound, how does the Potency read?
Answer: The Potency was inconclusive [inhibitor, partial curve, poor fit].

Question: For COC(=O)C1(Cc2ccccc2)NC(c2ccccc2C)C2C(=O)N(c3ccc4c(c3)OCO4)C(=O)C21 (centres undefined), which Potency is on record?
Answer: Its Potency is active: 11.7 µM.

Question: With Cc1ccc(NC(=O)CCS(=O)(=O)c2ccccc2)cc1S(=O)(=O)N1CCOCC1 as the compound, how does the “activity change, negative = inhibition” value read?
Answer: Its value is inactive: -19.8%.

Question: With Cc1cc(C)c2sc(N(CCCN(C)C)C(=O)c3ccc(Br)s3)nc2c1 as the compound, how does the Potency read?
Answer: Its Potency is inconclusive [inhibitor, full curve, poor fit].

Question: For COc1ccc(CNC(=O)CN2C(=O)NC(Cc3ccccc3)(c3ccccc3)C2=O)cc1OC (centres undefined), which Potency is on record?
Answer: The Potency was inconclusive [inhibitor, single point].

Question: For Cc1cccc(NC(=S)N(CCCN(C)C)Cc2cc3cc4c(cc3[nH]c2=O)OCO4)c1, which Potency is on record?
Answer: The Potency was inconclusive [inhibitor, single point].

Question: Which Potency does the source give for CCN(CC)c1ccc(C2C(C(=O)Nc3ccccn3)=C(C)NC3=C2C(=O)CC(C)(C)C3)cc1 (centres undefined) here?
Answer: Its Potency is inconclusive [inhibitor, partial curve].

Question: With Cc1ccccc1NC(=O)C(C)OC(=O)C1CC(=O)N(Cc2ccco2)C1 (centres undefined) as the compound, how does the Potency read?
Answer: Its Potency is inconclusive [inhibitor, partial curve, poor fit].

Question: Which Potency does the source give for Cc1cccc(C)c1NC(=O)C(=O)NCCc1c[nH]c2ccccc12 here?
Answer: The Potency was active: 5.22 µM.

Question: Which Potency does the source give for COc1ccc(-c2nn(-c3ccccc3)cc2C(=O)NC2CCCCC2C)cc1 (centres undefined) here?
Answer: The Potency was inconclusive [inhibitor, single point].

Question: For CCC(=O)N1CCc2cc(Br)cc(S(=O)(=O)N3CCC(C(=O)NCCCOC(C)C)CC3)c21, which Potency is on record?
Answer: Its Potency is active: 2.94 µM.

Question: Which Potency does the source give for CCN(CC)CCNC(=S)N1CCn2c(nc3ccccc32)C1 here?
Answer: The Potency was inconclusive [inhibitor, partial curve].

Question: For CCc1n[nH]c(=S)n1/N=C/c1ccc(N(CC)CC)cc1, which Potency is on record?
Answer: The Potency was inconclusive [inhibitor, single point].

Question: Which “activity change, negative = inhibition” value does the source give for C=CCN1C(=O)C(=O)N(CC(=O)c2ccc3c(c2)CCCC3)C1=O here?
Answer: Its value is inactive: 52%.

Question: Which Potency does the source give for COc1ccc(C(=O)NNC(=O)C23CC4CC(CC(C4)C2)C3)cc1OC here?
Answer: Its Potency is inconclusive [inhibitor, single point].

Question: With COc1ccc(S(=O)(=O)n2cccc2)cc1OC as the compound, how does the “activity change, negative = inhibition” value read?
Answer: The value was inactive: 15.1%.

Question: Which Potency does the source give for O=C(Nc1ccc(S(=O)(=O)N2CCOCC2)cc1)c1ccc(Cl)s1 here?
Answer: Its Potency is inconclusive [inhibitor, partial curve].

Question: For COCCN(C(=S)Nc1ccc(C)cc1C)C(C)c1cccs1 (centres undefined), which Potency is on record?
Answer: The Potency was inconclusive [inhibitor, single point].

Question: Which Potency does the source give for CCOC(=O)N1CCN(c2nc(N(c3ccccc3)c3ccccc3)nc(-n3ccnc3)n2)CC1 here?
Answer: Its Potency is inconclusive [inhibitor, full curve].

Question: With COc1cccc(NC(=O)C(=O)NCC2CCCN2S(=O)(=O)c2ccccc2)c1 (centres undefined) as the compound, how does the “activity change, negative = inhibition” value read?
Answer: Its value is inactive: 44.9%.

Question: Which Potency does the source give for COc1ccccc1N1CCN(C(=O)C2CCN(S(=O)(=O)c3ccccc3F)CC2)CC1 here?
Answer: Its Potency is inconclusive [inhibitor, single point].

Question: For O=C(COc1ccccc1)N(Cc1cc2ccccc2[nH]c1=O)CC1CCCO1 (centres undefined), which Potency is on record?
Answer: Its Potency is inconclusive [inhibitor, single point].

Question: With CC(C)NC(=O)CN1C(=O)c2ccccc2S1(=O)=O as the compound, how does the “activity change, negative = inhibition” value read?
Answer: The value was inactive: 14.2%.

Question: For CC(=O)c1cn(CC(=O)Nc2ccccc2)c2ccccc12, which Potency is on record?
Answer: Its Potency is inconclusive [inhibitor, partial curve, poor fit].

Question: With CC(C)c1cc(C(=O)Nc2cc(Br)ccc2O)no1 as the compound, how does the Potency read?
Answer: Its Potency is inconclusive [inhibitor, full curve].

Question: For O=C(N/N=C/c1cccnc1)c1ccccc1Cl, which “activity change, negative = inhibition” value is on record?
Answer: The value was inactive: 15.2%.

Question: For COc1ccc(S(=O)(=O)Cc2ccc(C(=O)NC3CCCCC3)o2)cc1, which “activity change, negative = inhibition” value is on record?
Answer: Its value is inactive: 11%.

Question: Which Potency does the source give for CC(/C=N/NC(=O)c1cc(-c2cccn2C)n[nH]1)=C\c1ccccc1 here?
Answer: Its Potency is inconclusive [inhibitor, single point].

Question: Which “activity change, negative = inhibition” value does the source give for Cn1nc(Cc2n[nH]c(=S)n2C)c2ccccc2c1=O here?
Answer: The value was inactive: -6.1%.

Question: Which Potency does the source give for COC1=C(Nc2ccc(C)cc2)C(=O)c2ccccc2C1=O here?
Answer: Its Potency is active: 2.33 µM.

Question: For Cc1ccc(-n2ncc3c(SCC(=O)NNC(=O)C(C)C)ncnc32)cc1, which “activity change, negative = inhibition” value is on record?
Answer: Its value is inactive: 55%.

Question: With O=C(C[n+]1cc(-c2ccc(F)cc2)n2c1CCC2)Nc1nc(-c2ccc(F)cc2)cs1 as the compound, how does the Potency read?
Answer: Its Potency is inconclusive [inhibitor, partial curve, poor fit].

Question: Which “activity change, negative = inhibition” value does the source give for CCNc1nc(NCC)n2c(SCC(=O)Nc3ccccc3)nnc2n1 here?
Answer: Its value is inactive: -19.6%.

Question: Which Potency does the source give for Cc1c(CNC(=O)c2nn3c(c2Cl)NC(c2ccccc2)CC3C(F)(F)F)cnn1C (centres undefined) here?
Answer: Its Potency is inconclusive [inhibitor, partial curve].

Question: For CCOC(=O)c1c(CSc2ccsc2)n(C)c2cc(Br)c(O)c(CN(C)C)c12, which Potency is on record?
Answer: Its Potency is inconclusive [inhibitor, full curve, poor fit].

Question: With CC(=O)c1ccc(N2CCN(C(=O)Nc3cccc(F)c3)CC2)cc1 as the compound, how does the Potency read?
Answer: The Potency was inconclusive [inhibitor, partial curve].

Question: With CCOC(=O)c1sc(/S(C)=N\S(=O)(=O)c2cccc(Cl)c2)c2c1CCC=C2 (centres undefined) as the compound, how does the Potency read?
Answer: Its Potency is inconclusive [inhibitor, single point].

Question: With COc1ccc(CC(=O)Nc2cccc(-c3nnc(-c4ccccc4)o3)c2)cc1OC as the compound, how does the Potency read?
Answer: Its Potency is inconclusive [inhibitor, single point].

Question: With CC(C)n1ncc2c(C(=O)Nc3ccc(S(N)(=O)=O)cc3)cc(C3CC3)nc21 as the compound, how does the Potency read?
Answer: The Potency was inconclusive [inhibitor, partial curve, poor fit].

Question: For CCCCOC(=O)Nc1ccc(C(=O)OC)cc1, which “activity change, negative = inhibition” value is on record?
Answer: The value was inactive: 66.1%.

Question: With Cc1noc(C)c1S(=O)(=O)N1CCCN(C(=O)/C=C/c2ccccc2F)CC1 as the compound, how does the Potency read?
Answer: Its Potency is inconclusive [inhibitor, partial curve].

Question: For Cc1cccc(-n2nc3c(c2NC(=O)C(C)C)CS(=O)(=O)C3)c1C, which Potency is on record?
Answer: The Potency was inconclusive [inhibitor, full curve, poor fit].

Question: With COC(=O)c1cc(NC(=O)c2c(C)noc2C)ccc1N1CCOCC1 as the compound, how does the “activity change, negative = inhibition” value read?
Answer: The value was inactive: 72%.

Question: With O=C(Nc1nnc(SCc2ccc(F)cc2)s1)c1ccccn1 as the compound, how does the Potency read?
Answer: The Potency was inconclusive [inhibitor, partial curve, poor fit].

Question: Which Potency does the source give for Cc1cccc(C(=O)c2c(N)sc3c2CCCC3)c1 here?
Answer: The Potency was inconclusive [inhibitor, single point].

Question: With CCC(=O)N1CCc2cc(OC)c(OC)cc2C1COc1ccc(C(=O)OC)cc1 (centres undefined) as the compound, how does the Potency read?
Answer: The Potency was active: 10.4 µM.

Question: For Cc1csc(SCC(=O)Nc2cc(C(C)(C)C)nn2-c2ccccc2)n1, which Potency is on record?
Answer: Its Potency is active: 7.38 µM.

Question: For Cc1ccc(C(C)C)c(OCc2nnc(SCC(=O)Nc3ncc(C)s3)n2C)c1, which Potency is on record?
Answer: The Potency was inconclusive [inhibitor, partial curve].

Question: Which Potency does the source give for CCCc1ccc(NC(=O)C2CCN(c3cnccn3)CC2)cc1 here?
Answer: Its Potency is inconclusive [inhibitor, partial curve, poor fit].

Question: For CCCOc1ccc(C(=O)C(CN2CCCC2)c2ccccc2)cc1 (centres undefined), which Potency is on record?
Answer: Its Potency is active: 10.4 µM.

Question: For O=C(Nc1ccc(S(=O)(=O)NC2=NCCCCC2)cc1)C1COc2ccccc2O1 (centres undefined), which Potency is on record?
Answer: The Potency was inconclusive [inhibitor, single point].

Question: For O=C(NCCc1ccccc1)C1CCN(C(=O)N2CCOc3ccccc32)CC1, which Potency is on record?
Answer: The Potency was inconclusive [inhibitor, single point].

Question: With Cc1cccc(C)c1N1CCN(c2ccc3nnc(C(F)(F)F)n3n2)CC1 as the compound, how does the Potency read?
Answer: The Potency was active: 9.28 µM.

Question: Which “activity change, negative = inhibition” value does the source give for C[n+]1cc(-c2ccccc2)oc1-c1ccccc1 here?
Answer: The value was inactive: 79.7%.

Question: Which “activity change, negative = inhibition” value does the source give for O=C(Cc1ccc(S(=O)(=O)N2CCCCC2)s1)Nc1ccc(F)cc1F here?
Answer: The value was inactive: -26.1%.

Question: Which Potency does the source give for CCCN(CCC)S(=O)(=O)c1ccc(C(=O)Nc2nnc(-c3cccc(OC)c3)o2)cc1 here?
Answer: Its Potency is inconclusive [inhibitor, single point].

Question: Which “activity change, negative = inhibition” value does the source give for O=[N+]([O-])c1ccc2[nH]c(O)c(N=NC3CCS(=O)(=O)C3)c2c1 (centres undefined) here?
Answer: The value was inactive: 17.2%.

Question: With Cc1ccc(C)c(NC(=O)C2CCC(C)(C(=O)O)C2(C)C)c1 (centres undefined) as the compound, how does the Potency read?
Answer: Its Potency is inconclusive [inhibitor, single point].

Question: With C#CCNC(=O)C1=C[C@H](C2CCCCC2)C[C@H](OCc2ccc(CO)cc2)O1 as the compound, how does the Potency read?
Answer: The Potency was inconclusive [inhibitor, partial curve, poor fit].

Question: For O=C1C(C=NCc2ccccn2)=C(O)c2ccccc21, which “activity change, negative = inhibition” value is on record?
Answer: The value was inactive: 184%.

Question: For CC1=C(C(=O)OCc2ccccc2)C(c2ccc(Cl)cc2)NC(=O)N1CCCCCC(=O)O (centres undefined), which Potency is on record?
Answer: Its Potency is inconclusive [inhibitor, single point].

Question: Which Potency does the source give for CCOC(=O)N1CCN(S(=O)(=O)c2cc(-c3nn4c(C)nnc4c4ccccc34)ccc2C)CC1 here?
Answer: Its Potency is inconclusive [inhibitor, partial curve].

Question: Which “activity change, negative = inhibition” value does the source give for CCOC(=O)N1CCC(N(C(=O)Nc2ccc(CC)cc2)C(C)CC)CC1 (centres undefined) here?
Answer: The value was inactive: -0.779%.

Question: Which Potency does the source give for O=C1c2[nH]nc(-c3ccccc3O)c2C(c2ccc(F)cc2)N1Cc1ccco1 (centres undefined) here?
Answer: Its Potency is inconclusive [inhibitor, single point].

Question: Which Potency does the source give for COc1ccccc1C(=O)Nc1cc(Cl)ccc1-n1cncn1 here?
Answer: Its Potency is inconclusive [inhibitor, partial curve].
